Laboratory results taken from the RNAGym collection of RNA variant scans (doi:10.1093/nar/gkz1192).
The source gives no read counts; variants with many changes may rest on few reads.

B1: CPEB3 Ribozyme (parent)
chain: UAACAGGGGGCCACAGCAGAAGCGUUCACGUCGCAGCCCCUGUCAGAUUCUGGUGAAUCUGCGAAUUCUGCUGUAUAUCUC

Variants of: B1
Assay: self-cleavage, relative activity (ratio to wild type); higher = more cleavage; in vitro, sequencing
In short: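 After error-prone PCR and barcoding, CPEB3 ribozyme mutant libraries were transcribed with T7 RNA polymerase at 37°C for 5 hours, then given 15 min with DNase I before an EDTA stop, and they cleaved during both steps. Reverse transcription with template switching preceded Illumina sequencing. Relative activity divides a variant's cleaved/total read fraction by the unmutated ribozyme's. At least 5 reads were required per variant, and three batches were averaged.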
With C29U A56G U58C the self-cleavage was 0.16.
In the case of C29U A56G U58C U69A, the self-cleavage is reported as 0.08.
In the case of C29U A64G A75G U80C, the self-cleavage is reported as 0.09.
C29U C32U A35G G36U U74C showed a self-cleavage of 0.14.
C29U C38G A45U U67C gave a self-cleavage of 0.07.
In the case of C29U C39G A65U U72A, the self-cleavage is reported as 0.12.
Variant C29U G42C A47G U51C A57U A75U has a self-cleavage of 0.08.
C29U G52A A75U U76G gave a self-cleavage of 0.41.
C29U U31A C32U G36A C44U U54C gave a self-cleavage of 0.06.
In the case of C29U U31C U41C U69C, the self-cleavage is reported as 0.12.
C29U U31C U43A U60A U78C gave a self-cleavage of 0.12.
For C29U U41C A56U U60C, the self-cleavage was 0.11.
C29U U41C U43A showed a self-cleavage of 0.29.
For C29U U43A A45G U54A U72C, the self-cleavage was 0.43.
C29U U43C A45U G53A U60A showed a self-cleavage of 0.24.
Variant C29U U43C A47G U58C has a self-cleavage of 0.27.
C29U U43C U60C U69C gave a self-cleavage of 0.44.
For C29U U48C U69C U76A, the self-cleavage was 0.15.
Variant C29U U72A U76A has a self-cleavage of 0.2.
G30A A35C U43C U60C A65U U69C showed a self-cleavage of 0.09.
G30A A35U U48G U60C U76A gave a self-cleavage of 0.13.
In the case of G30A A45C A57G U72A, the self-cleavage is reported as 0.07.
G30A A47G A56G U58C showed a self-cleavage of 0.26.
With G30A A57G G63A U78C the self-cleavage was 0.08.
With G30A A65G U69C U72A the self-cleavage was 0.12.
With G30A C32A U48C C79G the self-cleavage was 0.06.
Variant G30A C39U U80C has a self-cleavage of 0.2.
With G30A G36U U43C U72G A77G the self-cleavage was 0.05.
In the case of G30A G42A U48C U69C U74C, the self-cleavage is reported as 0.16.
Work on G30A G46A U72A yielded a self-cleavage of 0.13.
G30A U31A A47U U54C A56G U78A gave a self-cleavage of 0.
G30A U41C A45U U76C gave a self-cleavage of 0.13.
In the case of G30A U41C A56U U69A, the self-cleavage is reported as 0.06.
In the case of G30A U41C C44A, the self-cleavage is reported as 0.13.
Work on G30A U41C U48C U54C yielded a self-cleavage of 0.12.
Work on G30A U43C A45U A57G U74C yielded a self-cleavage of 0.15.
G30A U43C C59A U67A gave a self-cleavage of 0.18.
G30A U43C U66C gave a self-cleavage of 0.07.
G30A U48C A77G showed a self-cleavage of 0.31.
Work on G30A U49C U69A yielded a self-cleavage of 0.34.
With G30A U51A U69C the self-cleavage was 0.09.
With G30A U54A A77U the self-cleavage was 0.06.
Work on G30C G42C A75U yielded a self-cleavage of 0.27.
In the case of G30C U31A U41A U60C U66C, the self-cleavage is reported as 0.06.
Variant G30C U31C U60C has a self-cleavage of 0.16.
With G30C U51A U58A U60C U66C U72C U80C the self-cleavage was 0.17.
With G30U A35C A64U the self-cleavage was 0.21.
In the case of G30U A35G U41A U66C, the self-cleavage is reported as 0.12.
G30U A35G U72C U78C gave a self-cleavage of 0.12.
With G30U A47G U74A the self-cleavage was 0.22.
G30U U41C U58C A65G G73A showed a self-cleavage of 0.13.
G30U U43A U49C showed a self-cleavage of 0.16.
Variant G30U U43C A45G U66C has a self-cleavage of 0.15.
With G30U U67C U74C the self-cleavage was 0.13.
Variant U31A A35G A45U U67C has a self-cleavage of 0.34.
With U31A A35G A64G the self-cleavage was 1.31.
For U31A A35G U43C U51C, the self-cleavage was 0.86.
Variant U31A A35G U51C A64C U72G has a self-cleavage of 0.61.
In the case of U31A A35G U54C U78C, the self-cleavage is reported as 1.28.
In the case of U31A A35U A56U U74C, the self-cleavage is reported as 0.26.
U31A A35U A64U showed a self-cleavage of 0.16.
U31A A35U C50A U72C U78C gave a self-cleavage of 0.12.
With U31A A35U U41C U51A U60A U69C the self-cleavage was 0.09.
Variant U31A A35U U51C U67C U72C G73A has a self-cleavage of 0.09.
For U31A A35U U69C U72C, the self-cleavage was 0.06.
U31A A45G U54C A57G U58A gave a self-cleavage of 0.07.
In the case of U31A A45U A47U A56G, the self-cleavage is reported as 0.07.
Variant U31A A45U A64G U69A has a self-cleavage of 0.09.
For U31A A45U U54G, the self-cleavage was 0.18.
With U31A A45U U72A the self-cleavage was 0.44.
U31A A45U U74A U78C gave a self-cleavage of 0.35.
U31A A47G A56U gave a self-cleavage of 0.19.
In the case of U31A A47G A75U U78A, the self-cleavage is reported as 0.8.
In the case of U31A A47G U60C A64U, the self-cleavage is reported as 0.14.
Variant U31A A47G U66C U74C has a self-cleavage of 0.17.
U31A A47U U51C gave a self-cleavage of 0.19.
U31A A56G U60A showed a self-cleavage of 0.1.
U31A A64U C68U U80C showed a self-cleavage of 0.2.
Work on U31A A77G U78G yielded a self-cleavage of 0.34.
U31A C32G U66C showed a self-cleavage of 0.07.
With U31A C37A U72A the self-cleavage was 0.11.
In the case of U31A C37U C39A U67A, the self-cleavage is reported as 0.05.
U31A C40U A47G U69A showed a self-cleavage of 0.11.
In the case of U31A C40U G53C, the self-cleavage is reported as 0.34.
